Test results taken from PubChem BioAssay AID1508624 (National Center for Advancing Translational Sciences (NCATS), 2021).
About 120 (0.25%) of roughly 48,000 compounds were called active. Not shown: some 4% with an inconclusive outcome. Calls come from the whole dose curve; as a rule, active = well fitted activation curve with a large enough effect; inconclusive = small, poorly fitted or top-dose-only effect, or another doubt; inactive = no such curve, though single readings can be large or run the other way. This is one part of the list.

experiment: Primary qHTS for Identification of Small Molecule Activators of Huntingtin-Antisense Promoter Activity; conditions: HEK293 HTT-AS promoter firefly luciferase reporter (activity 0% = vehicle and -100% = no light), 24 h; series mostly up to 57.5 µM; activity change, positive = activation: at the top concentration; note: nearly all actives have a fitted effect of over 55% in size
Procedure, shortened: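 Firefly luciferase readout (Dual-Glo, 10 min RT) after 24 h, 37 °C compound exposure (final up to 57.5 uM) of HEK293 reporter cells cultured 24 h beforehand; PTC124 at 50 uM final as control inhibitor; activity scaled vehicle 0%, zero RLU -100%.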
Potency is the fitted concentration of half-maximal effect.

Activity change, positive = activation, inactive:
CCOc1ccc(C(=O)c2cn(CC(=O)Nc3ccc4c(c3)OCO4)c3ccc(OC)cc3c2=O)cc1 -15.4%
CCn1c(=O)n(-c2ccc3c(c2)OCO3)c2nc(-c3ccc(C(C)C)cc3)nc(C(N)=O)c21 0.478%
CCOc1ccc2c(c1)c(=O)c(C(=O)c1ccc(CC)cc1)cn2CC(=O)Nc1ccccc1OC -14.8%
COc1ccc(OC)c(NC(=O)Cn2c(=O)c3cccn3c3ccccc32)c1 12%
Cc1ccc(Cl)cc1NC(=O)CSc1nc2ccccc2c2nc(-c3ccccc3)nn12 -4.82%
CCOC(=O)C1CCN(C(=O)c2nn(-c3ccc(OC)c(Cl)c3)c(=O)c3c2c2ccccc2n3C)CC1 -6.73%
Cc1ccc(S(=O)(=O)c2cn(CC(=O)Nc3cccc(Cl)c3)c3ccccc3c2=O)cc1 -30.7%
CCn1c2ccccc2c2cc(CN3CCN(Cc4cc(OC)c(O)c(OC)c4)CC3)ccc21 -6.18%
COc1ccc(N2CCN(c3ccc(-c4nc(-c5ccccc5)no4)cc3[N+](=O)[O-])CC2)cc1 -43.7%
O=C(Nc1cccc(Cl)c1Cl)c1ccc2c(c1)N(Cc1cccc(Cl)c1)C(=O)c1ccccc1S2=O (configuration not stated) -9.96%
COc1cc2[nH]c(=O)n(Cc3ccc(C(=O)N4CCN(c5ccc(Cl)cc5)CC4)cc3)c(=O)c2cc1OC -49.9%
Cc1ccc(C)c(NC(=O)Cn2nc(C)c3nn(-c4ccc(Cl)cc4)c(C)c3c2=O)c1 -26.9%
Cc1ccc(N(Cc2cccs2)C(=O)C(C)Oc2ccc(Cl)c(C)c2)cc1 (configuration not stated) -34.6%
Cc1ccc(NC(=O)c2sc3ncn(Cc4cccc(F)c4)c(=O)c3c2C)c(Br)c1 8.85%
CCOc1ccccc1NC(=O)CCCc1nc(-c2ccccc2Cl)no1 -17.3%
COc1ccc(CNC(=O)CCS(=O)(=O)c2cc(Br)cc3c2N(C(C)=O)C(C)C3)cc1 (configuration not stated) -14.3%
CCOc1ccc(CCNC(=O)c2cc3c(=O)n(CC)c4ccccc4c3s2)cc1OCC -15.8%
CCc1cccc(NC(=O)CSc2nncn3c2cc2sccc23)c1 -24.8%
COc1ccc(S(=O)(=O)NCCSc2nnnn2-c2ccccc2)cc1OC -27.9%
Cc1ccc(Cl)cc1N1CCN(C(=O)CN2C(=O)COc3ccc(S(=O)(=O)N4CCCCCC4)cc32)CC1 -37.9%
CC(C)CCNC(=O)c1ccc2c(c1)NC(=O)C(C(C)C)N2 (configuration not stated) -7.19%
Cc1c(C(=O)O)c(O)cc2c1C(=O)c1c(O)c([C@@H]3O[C@H](CO)[C@@H](O)[C@H](O)[C@H]3O)c(O)c(O)c1C2=O -26.8%
Cc1c(C)n(Cc2ccccc2)c2ccc(C(=O)N3CCN(c4ccc(F)cc4)CC3)cc12 -14.6%
Cn1cnc(S(=O)(=O)N2CCCC(C(=O)NCc3ccc(Cl)cc3)C2)c1 (configuration not stated) -13.8%
CCN(CC)S(=O)(=O)c1ccc2c(c1)N(CC(=O)N1CCN(c3ccc(OC)cc3)CC1)C(=O)CO2 -10.5%
Cc1ccccc1Nc1c(-c2cccc(Cl)c2)nc2ncccn12 -4.51%
CCNC(=O)c1c(NC(=O)Cc2coc3ccc(CC)cc23)sc2c1CCCC2 -18.9%
CC(C)(C)C(=O)C(Oc1ccc(Cl)cc1)n1ccnc1 (configuration not stated) -10.3%
COc1cccc(C2C(C(=O)Nc3ccc(Cl)cc3)=C(C)Nc3nc4ccccc4n32)c1OC (configuration not stated) -21%
CC(=O)N1CCCc2cc(S(=O)(=O)N3CCN(c4ccccc4F)CC3)ccc21 -34.4%
CCCCNC(=O)c1c(-c2ccccc2)c(-c2ccccc2)nn(C)c1=O -13.7%
Cc1oc2ncn(CC(C)C)c(=O)c2c1C(=O)N(CCN(C)C)Cc1ccccc1 4.37%
Cc1ccc2c(c1)N(C(=O)N1CCC(C(=O)NCc3ccccc3C)CC1)CC(C)O2 (configuration not stated) -21.6%
CCCCNC(=O)c1ccc2c(c1)N(CC)C(=O)c1ccccc1S2 -21.9%
CC(=O)N1c2ccc(S(=O)(=O)NCc3ccccc3Cl)cc2CC1C (configuration not stated) -29%
NC(=NCCCCCCN=C(N)/N=C(\N)Nc1ccc(Cl)cc1)/N=C(\N)Nc1ccc(Cl)cc1 -28.7%
CCOC(=O)c1c(C)n(-c2ccccc2)c2ccc(OC(=O)COc3ccccc3)cc12 -1.36%
COc1ccc(N2CCN(C(=O)C3CCCN(C(=O)c4cc5sccc5n4C)C3)CC2)cc1 (configuration not stated) -27.8%
CCCCNC(=O)CN1C(=O)c2cccnc2Sc2ccccc21 -7.03%
CC1=C(C(=O)Nc2cccnc2)C(c2cccc(F)c2)n2nc(SCc3ccccc3F)nc2N1 (configuration not stated) -17.9%
COc1ccc(C)cc1NC(=O)c1cc(S(=O)(=O)N2CCOCC2)cn1C -11.7%
O=C(CSc1nc(=O)[nH]c2c1CCCC2)NCc1ccccc1Cl -2.72%
Cn1c(=O)c2c(nc(SCC(=O)Nc3ccc(F)cc3)n2Cc2ccccc2F)n(C)c1=O -11.2%
COc1ccc(C(CNC(=O)c2ccc(F)cc2)N2CCCC2)cc1 (configuration not stated) -7.47%
Cc1cc(C)cc(NC(=O)N2CCC(CN3CCCCCC3)CC2)c1 -1.55%
CCCSc1ncc(Cl)c(C(=O)Nc2c(C(=O)c3ccc(C)cc3)oc3ccccc23)n1 -9.12%

Potency, active:
CCCc1nnc(NC(=O)c2cc(=O)c3ccccc3o2)s1 3.98 µM
